# Results published in PubChem BioAssay AID1347055 (National Center for Advancing Translational Sciences (NCATS), 2019).
# Screen size: about 54,000 compounds; about 120 (0.22%) were called active. Inconclusive means that the source gave no clear call. Such entries were picked first, then a sample of the others. The call rests on the fitted dose curve; in most records, active means well fitted inhibition curve with a large enough effect; inconclusive means small, poorly fitted or top-dose-only effect, or effect the other way; inactive means flat fitted curve, though single readings scatter. Potencies of inconclusive entries are left out as doubtful fits.
# Biological target: Fumarate hydratase, mitochondrial (Homo sapiens) (UniProt P07954)
# Chain of UniProt P07954 (P07954 whole entry, looked up): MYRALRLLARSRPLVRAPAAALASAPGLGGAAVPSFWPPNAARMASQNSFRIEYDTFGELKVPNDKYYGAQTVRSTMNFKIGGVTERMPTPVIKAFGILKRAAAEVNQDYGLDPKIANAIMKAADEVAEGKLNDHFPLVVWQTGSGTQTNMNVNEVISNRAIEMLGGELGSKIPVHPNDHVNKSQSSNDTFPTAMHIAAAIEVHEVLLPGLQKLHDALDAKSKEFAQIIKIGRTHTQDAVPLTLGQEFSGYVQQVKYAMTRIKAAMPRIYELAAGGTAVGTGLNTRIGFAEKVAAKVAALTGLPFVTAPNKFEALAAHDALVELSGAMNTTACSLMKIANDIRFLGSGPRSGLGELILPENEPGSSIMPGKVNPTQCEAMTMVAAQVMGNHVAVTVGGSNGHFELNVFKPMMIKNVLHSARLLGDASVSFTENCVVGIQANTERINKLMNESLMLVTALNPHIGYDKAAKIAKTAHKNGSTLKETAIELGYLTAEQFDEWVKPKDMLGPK
# Test: Identification of activators of human fumarate hydratase by quantitative high-throughput screening; further: the screen sought activators but most active calls are inhibition curves; nearly all actives have a fitted effect of over 45% in size
# Conditions: FH coupled MDH/diaphorase resazurin fluorescence, 15 min; activity change, negative = inhibition: at 79.9 µM (top of the series)
# On the % scale 0 is the no-effect control and ±100 the full control effect; potency means the concentration at half of the fitted maximal effect; tags describe the fitted curve by direction and shape.
Compound,"activity change, negative = inhibition",Potency
COc1ccc(NC(=O)Cn2c(=O)oc3cc(S(=O)(=O)NC4CCCC4)ccc32)cc1OC,inactive: -1.08%,–
Cc1ccc(S(=O)(=O)N2CCCc3cc(NS(=O)(=O)c4ccc(F)c(C)c4)ccc32)cc1,–,"inconclusive [inhibitor, single point]"
Cc1c(NC(=O)c2ccc(OC(C)C)cc2)cccc1-c1nc2ncccc2o1,inactive: 5.59%,–
COc1cccc(C(=O)NCCSc2c(-c3ccc(F)cc3)[nH]c3ccccc23)c1OC,–,"inconclusive [inhibitor, single point]"
Nc1ccc2c(c1)CN1C(=O)c3ccccc3C1=N2,inactive: 3.18% [at 20.6 µM],–
COc1ccc(Br)cc1C(=O)Nc1nc2ccc(F)cc2s1,inactive: -3.58%,–
O=C(O)CSc1c2c(nc3cc(C(=O)Nc4ccc(F)c(Cl)c4)ccc13)CCC2,–,"inconclusive [inhibitor, single point]"
COc1cccc(C(=O)N2c3cc(C)ccc3C(C)(c3ccccc3)CC2(C)C)c1 (stereo unspecified),–,"inconclusive [inhibitor, partial curve]"
COc1cc(NC(=O)C2CCCN(S(=O)(=O)c3ccc4c(c3)oc(=O)n4C)C2)c(C(=O)O)cc1OC (stereo unspecified),–,"inconclusive [inhibitor, partial curve]"
CC(C)OCCCNC(=O)c1cc2c(-c3ccc(Cl)cc3)nn(C)c2s1,–,"inconclusive [inhibitor, partial curve]"
CCOC(=O)c1ccc(N2C(=O)c3n[nH]c(-c4cccs4)c3C2c2ccc(C(C)(C)C)cc2)cc1 (stereo unspecified),–,"inconclusive [inhibitor, partial curve, poor fit]"
Clc1ccc(N2CCN(c3ncnc4c3nc3n4CCCC3)CC2)cc1,inactive: -15.6%,–
Cn1cnc(=N)c2[nH]cnc21,inactive: -0.789% [at 53.3 µM],–
COc1cc(F)c(C(C)C)cc1-c1ccc(C(F)(F)F)cc1CN1C(=O)OC(c2cc(C(F)(F)F)cc(C(F)(F)F)c2)C1C (stereo unspecified),inactive: 2.17%,–
COc1ccccc1CNC(=O)c1ccc(-c2nc(CN3CCc4ccccc43)c(C)o2)cc1,inactive: -30%,–
Cc1cc(Nc2cccc(Cl)c2)nc2ccc(NC(=O)c3cccnc3)cc12,–,"inconclusive [inhibitor, partial curve, poor fit]"
COc1ccccc1NC(=O)C1CCC(CNS(=O)(=O)c2ccc3c(c2)CC(C)N3C(C)=O)CC1 (stereo unspecified),–,"inconclusive [inhibitor, single point]"
O=C(c1ccc2c(c1)N(Cc1cccc(Cl)c1)C(=O)c1ccccc1S2)N1CCOCC1,–,"inconclusive [inhibitor, partial curve, poor fit]"
c1ccc(OCCn2c(COc3ccccc3)nc3ccccc32)cc1,–,"inconclusive [inhibitor, partial curve, poor fit]"
O=C1c2ccccc2-c2onc3c(NCCO)cc(NC4CCCCC4)c1c23,–,"inconclusive [inhibitor, single point]"
C=C(C(=O)OC[C@H]1O[C@@H](OC(=O)/C=C/c2ccccc2)[C@H](O)[C@@H](O)[C@@H]1O)C(O)CO (stereo partly specified),inactive: -0.271% [at 53.3 µM],–

Compound,"activity change, negative = inhibition",Potency
CC(C)CCN(C(=O)Nc1ccc(Cl)c(Cl)c1)C(C)c1cccs1 (stereo unspecified),–,"inconclusive [inhibitor, partial curve, poor fit]"
COc1cc(/C=C/c2nc(C#N)c(N3CCC(C)CC3)o2)cc(OC)c1OC,inactive: -25.6%,–
COc1ccc(NC(=O)Cc2csc(COc3cccc(C)c3)n2)c(OC)c1,inactive: -24.9%,–
O=C(c1ccc(F)cc1F)N1CCC(c2noc(-c3ccc(S(=O)(=O)N4CCCC4)cc3)n2)CC1,inactive: 0.656%,–
CC1(C)CCC2(C(=O)OC3OC(COC4OC(CO)C(O)C(O)C4O)C(O)C(O)C3O)CCC3(C)C(=CCC4C5(C)CCC(O)C(C)(C(=O)O)C5CCC43C)C2C1O (stereo unspecified),inactive: -1.76% [at 20.6 µM],–
Cc1cccc(OCC(=O)Nc2ccc3nc(Nc4cccc(Cl)c4)cc(C)c3c2)c1,inactive: -7.38%,–
CCOCCCn1c(=N)c(C(=O)NCC2CCCO2)cc2c(=O)n3cc(C)ccc3nc21 (stereo unspecified),inactive: -19.4%,–
COc1ccccc1NC(=O)CSc1nnc2c3ccccc3n(C)c2n1,–,"inconclusive [inhibitor, single point]"
CCc1ccc(NC(=O)CSc2nnc(-c3cc4occc4n3C)n2-c2ccccc2C)cc1,–,"inconclusive [inhibitor, single point]"
CC(C)C1=CC2=CCC3[C@](C)(CCC[C@@]3(C)C(=O)O)C2CC1O (stereo partly specified),inactive: 1.25% [at 53.3 µM],–
CN(C)c1ccc(C(=C2C=CC(=[N+](C)C)C=C2)c2ccccc2)cc1,–,"inconclusive [inhibitor, single point]"
COc1ccc(Cl)cc1NC(=O)c1c(NCc2ccc(C)o2)sc2c1CCCC2,–,"inconclusive [inhibitor, partial curve, poor fit]"
COCCNC(=O)c1cc2c(Cl)nc3ccc(C)cc3c2s1,–,"inconclusive [inhibitor, full curve, poor fit]"
Cc1ccc(CN(Cc2ccco2)C(=O)c2oc3c(C)c(C)ccc3c2C)cc1,–,"inconclusive [inhibitor, partial curve]"
COc1ccc(NC(=O)c2ccco2)cc1NC(=O)C(C)Oc1ccc(Cl)cc1Cl (stereo unspecified),–,"inconclusive [inhibitor, partial curve, poor fit]"
COc1ccc(-c2onc(C)c2C)cc1S(=O)(=O)Nc1ccc(OC(F)(F)F)cc1,–,"inconclusive [inhibitor, single point]"
COC(=O)[C@]12CCC(C)(C)C[C@@H]1[C@@H]1C(=O)C=C3[C@]4(C)C=C(C#N)C(=O)C(C)(C)[C@@H]4CC[C@@]3(C)[C@]1(C)CC2,inactive: -10.3%,–
CCOC(=O)c1csc(Nc2ccc(Cl)cc2)n1,inactive: 2.24%,–
COc1cccc(NC(=O)CSc2nc3c([nH]c4ccccc43)c(=O)n2-c2cccc(Cl)c2)c1,–,"inconclusive [inhibitor, partial curve, poor fit]"
CCN(Cc1ccccc1)C(=O)c1cc2ccc3cccnc3c2[nH]1,–,"inconclusive [inhibitor, partial curve]"
